Test results from PubChem BioAssay AID686978 (National Center for Advancing Translational Sciences (NCATS), 2013).
Screen size: about 420,000 compounds; about 64,000 (15%) were called active. The shares of active, inactive and inconclusive entries below differ from those in the screen. Calls follow the shape of the dose curve; as a rule, active = well fitted inhibition curve with a large enough effect; inconclusive = small, poorly fitted or top-dose-only effect; inactive = flat fitted curve, though single readings scatter. No potency is given beside an inconclusive call; the fits are too rough.

Assay: qHTS for Inhibitors of human tyrosyl-DNA phosphodiesterase 1 (TDP1): qHTS in cells in absence of CPT; also: nearly all actives have a fitted effect of over 55% in size
Details: DT40 Tdp1-/- hTDP1 cells, no CPT, ATP luminescence, 48 h; activity change, negative = growth inhibition: at 46.2 µM (top of the series) unless noted
How it was run: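 Stably hTDP1-transfected Tdp1-null chicken DT40 cells were treated with library compounds minus camptothecin and grown for at least 48 hr at 37 °C, after which cellular ATP was quantified by luminescence.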
% is scaled to controls: 0 for no effect and ±100 for the full control effect; potency is read from the fitted curve at half-maximal effect; tags tell the direction and shape of the fitted curve.

Compound	Potency	activity change, negative = growth inhibition
Cc1cc(C)cc(NC(=O)C(=O)NC(C)c2ccccc2)c1 (stereo not given)	inconclusive [inhibitor, partial curve]	–
CCCCNC(=O)CC1N=C2c3ccccc3N=C(SCC(=O)Nc3ccccc3C)N2C1=O (stereo not given)	–	inconclusive: -31.1% [inhibitor]
CCOc1ccc(CNC(=S)Nc2ccccc2)cc1Cl	inconclusive [inhibitor, partial curve]	–
Cc1csc(NC(=O)CSc2nnc(-c3ccoc3C)o2)n1	inconclusive [inhibitor, single point]	–
Cc1cc(C(=O)CN2C(=O)NC(CC(C)C)C2=O)c(C)n1-c1ccccc1F (stereo not given)	–	inactive: -7.21%
Cc1cccc(CNC(=O)c2cnn(-c3nccc(-c4cccs4)n3)c2C(C)C)n1	inconclusive [inhibitor, single point]	–
CCOC(=O)c1cc(-c2ccccc2)n(-c2cccc(C(=O)N(CC)c3ccccc3)c2)c1C	active: 18.4 µM	–
CC(C)N(Cc1nnc(-c2ccccc2Br)o1)C(=O)c1cc(Cl)nc2ccccc12	inconclusive [inhibitor, single point]	–
c1ccc(-c2nn[nH]n2)cc1	–	inactive: -25.6%
CC(C)(C)C(=O)Nc1ccc(C(=O)N/N=C/c2ccccc2OC(=O)c2ccc(Cl)cc2)cc1	active: 4.61 µM	–
Cc1ccc(/C=N\NC(=O)c2csnn2)cc1	–	inactive: -13.4%
COc1ccc(C2CC(=O)C=C(NCc3ccc4c(c3)OCO4)C2)cc1 (stereo not given)	inconclusive [inhibitor, partial curve]	–
CN(C)S(=O)(=O)c1cccc(NC(=S)NC(=O)c2ccco2)c1	–	inactive: -4.65%
COc1cccc(C(=O)NNC(=O)C(=O)Nc2ccc(OC)cc2OC)c1	inconclusive [inhibitor, single point]	–
Cc1c(Nc2cc(Cl)c3nonc3c2[N+](=O)[O-])c(=O)n(-c2ccccc2)n1C	active: 2.06 µM	–
COC(=O)CNC(=O)c1ccc2c(c1)S(=O)(=O)c1ccccc1C2=O	–	inconclusive: -31.1% [inhibitor]
CCOC(=O)CNC(=O)/C=C/c1ccc2c(c1)OCO2	–	inactive: -18.1%
COc1ccc(-c2csc3ncn(Cc4ccccc4)c(=O)c23)cc1	inconclusive [inhibitor, single point]	–
Cn1cnc([N+](=O)[O-])c1C(=O)Nc1cccc([N+](=O)[O-])c1	–	inactive: 1.77%
O=C(NC1CCCc2c1cnn2-c1cc(F)cc(F)c1)c1ccc[n+]([O-])c1 (stereo not given)	–	inactive: -3.81%
Cc1ccc(-n2c(SCC(=O)N(C)C)nnc2-c2ccco2)cc1	inconclusive [inhibitor, single point]	–
Cc1ccc(C(=O)N/N=C2\CCCc3ccccc32)c(C)c1	inconclusive [inhibitor, single point]	–
CC(=O)CSc1ccc(-c2nc3ccccc3[nH]2)cn1	active: 8.2 µM	–
O=c1oc2ccccc2cc1-c1nc(-c2cccs2)cs1	inconclusive [inhibitor, full curve]	–
CCN(CC(=O)Nc1ccc(NC(C)=O)cc1)C(=O)C1CC(=O)N(c2ccc3c(c2)OCCO3)C1 (stereo not given)	–	inactive: -28.8%

Compound	Potency	activity change, negative = growth inhibition
Cc1ccc2c(c1)OC(=O)CC2c1ccccc1 (stereo not given)	–	inactive: 1.57%
Cc1nc(C(=O)N2CCCC(N3CCN(c4ccc(F)cc4)CC3)C2)cs1 (stereo not given)	active: 14.6 µM	–
N#C/C(=C\c1ccc(-c2ccc([N+](=O)[O-])cc2)o1)C(=O)Nc1nc(-c2cccs2)cs1	inconclusive [inhibitor, partial curve, poor fit]	–
O=C(CCC(=O)NNC(=O)COc1ccc(Br)cc1Br)NCc1ccccc1	–	inactive: 0.207%
COc1cccc(NC(=O)C2CCCN2S(=O)(=O)c2ccc3c(c2)C(C)(C)C(=O)N3C)c1 (stereo not given)	inconclusive [inhibitor, single point]	–
Cc1ccc(SCCNC(=O)c2ccc(C)c([N+](=O)[O-])c2)cc1	–	inactive: -33.8%
Cc1cccc(S(=O)Cc2ccc(C(=O)N3CCOCC3)o2)c1 (stereo not given)	–	inactive: 23.7%
CCOC(=O)N1CCN(C(=O)c2cccn3c(=O)c4cc(Cl)ccc4nc23)CC1	–	inactive: -8.87%
C/C(=N\NC(=S)NC(C)C)c1ccc(-n2ccnc2)cc1	active: 4.11 µM	–
COc1ccc(N2CCN(C(=O)NCc3noc4ccccc34)CC2)cc1	–	inactive: -28.2%
CCN1CCN(c2sc(S(C)(=O)=O)nc2S(=O)(=O)c2ccc(Cl)cc2)CC1	inconclusive [inhibitor, single point]	–
Cc1cccc(C2c3[nH]c4ccccc4c3CCN2C(=O)c2cc3c([nH]c2=O)CCCC3)n1 (stereo not given)	inconclusive [inhibitor, single point]	–
COC(=O)c1ccccc1NC(=O)c1cn(-c2ccc(C)c(C)c2)c(=O)c2ccccc12	active: 23.1 µM	–
CCCN1CNc2c(c(=O)[nH]c(=S)n2CCc2cccc(C)c2)C1	inconclusive [inhibitor, single point]	–
O=[N+]([O-])c1ccc(NC(c2ccccc2)c2ccc3cccnc3c2O)cc1 (stereo not given)	active: 4.61 µM	–
COC(=O)C(Cc1c[nH]c2ccccc12)NC(=O)CCNC(=O)c1ccco1 (stereo not given)	–	inactive: -2.46%
Cc1nccn1CCOc1ccccc1Cl	–	inactive: -3.82%
Cc1ccc(S(=O)(=O)N2CCN(c3nc(-c4cscn4)nc4ccccc34)CC2)cc1	inconclusive [inhibitor, single point]	–
OCCCNc1ncnc2c1cnn2-c1ccc(Cl)cc1	inconclusive [inhibitor, single point]	–
Cc1ccc(NC(=O)NNC(=O)C2CCN(Cc3ccc(F)cc3Cl)CC2)cc1	inconclusive [inhibitor, single point]	–
COCCNC(=O)C1(C)Cc2c(-c3ccc(NC(C)=O)cc3)ccnc2O1 (stereo not given)	inconclusive [inhibitor, single point]	–
CN(CC(=O)NCCc1ccc(S(N)(=O)=O)cc1)CC(=O)Nc1cccc(F)c1	–	inactive: -17.3%
Cn1c(SCC(=O)Nc2cccc(O)c2)nnc1-c1ccc(S(=O)(=O)N2CCOCC2)cc1	–	inactive: -22.6%
Cc1ccc(S(=O)(=O)/N=C(/NC(=S)Nc2c(C)n(C)n(-c3ccccc3)c2=O)c2ccccc2)cc1	–	inactive: 14.8%
COc1cc(OC)c(N(C)S(=O)(=O)c2cccc(C(=O)NC(C)C3CC4CCC3C4)c2)cc1Cl (stereo not given)	active: 23.1 µM	–

Compound	Potency	activity change, negative = growth inhibition
Cn1c(SCC(=O)N2CCOCC2)nc2cccnc21	–	inactive: -3.77%
FC(F)(F)c1cccc(Cn2nnnc2-c2cc(Cl)cc(Cl)c2)c1	inconclusive [inhibitor, partial curve, poor fit]	–
CC(C)(C)c1ccc(C(=O)C2CCCN(C(=O)c3ccccn3)C2)cc1 (stereo not given)	inconclusive [inhibitor, full curve, poor fit]	–
Cc1ccc(OCCNC(=O)/C=C/c2ccccc2)cc1	inconclusive [inhibitor, single point]	–
CN(C)C(=O)COc1ccc(C(=O)/C=C/c2cccnc2)cc1	active: 13 µM	–
CCOC(=O)N1CCN(C(=O)c2ccc(N(Cc3ccc(Cl)cc3)S(C)(=O)=O)cc2)CC1	–	inconclusive: -52.4% [inhibitor]
CC(=O)Nc1cccc(Oc2nc(C)cc(C)c2C#N)c1	inconclusive [inhibitor, partial curve, poor fit]	–
CNC(=O)N(O)C1N(NC(=O)Nc2cccc3ccccc23)C(=S)SC1(C)C (stereo not given)	inconclusive [inhibitor, single point]	–
CCOC(=O)c1sc(Nc2ccc(Br)cc2)nc1C	inconclusive [inhibitor, single point]	–
O=C(Nc1c(C(=O)Nc2cccc(F)c2)oc2ccccc12)c1cc2ccccc2o1	active: 14.6 µM	–
CCCCn1c(CCNC(=O)CCC)nc2ccccc21	inconclusive [inhibitor, single point]	–
Cn1c(=O)c(CCc2ccccc2)nc2cnc(Oc3ccccc3)nc21	inconclusive [inhibitor, single point]	–
CCCN1C(=O)c2cc(C(=O)Nc3ccccc3OC)ccc2C1Nc1ccccc1OC (stereo not given)	inconclusive [inhibitor, single point]	–
CS/C(=C(/C#N)S(=O)(=O)c1ccc(Cl)cc1)N1CCOCC1	–	inactive: -20.4%
Fc1ccccc1NC(=S)NNc1ncc(C(F)(F)F)cc1Cl	active: 23.1 µM	–
CN(Cc1c(F)cccc1Cl)C(=O)c1cnc2ccccc2n1	inconclusive [inhibitor, single point]	–
Fc1ccc(-c2ccc(CNCCSc3nnnn3-c3ccccc3)o2)cc1Cl	–	inactive: -16.3%
COC(=O)C1=CN(c2ccc(N3CCOCC3)cc2)C(N)=C(C#N)C1c1cccc(F)c1 (stereo not given)	active: 8.2 µM	–
COc1ccc(OCc2cccc(C(=O)Nc3ccc(CN4CCCCC4)cc3)c2)cc1	inconclusive [inhibitor, single point]	–
Cc1cc(C(=O)N=Nc2c(O)n(C(C)C)c3ccccc23)n[nH]1	active: 18.4 µM	–
CCn1cc(C(=O)N2CCN(C3CCCCC3)CC2)c2cc(OC)c(OC)cc2c1=O	inconclusive [inhibitor, single point]	–
CCNC(=O)c1ccc2nc(Cc3ccccc3)oc2c1	inconclusive [inhibitor, single point]	–
CCc1cc2c(NCc3ccco3)ncnc2s1	active: 13 µM	–
Cc1cc(C)c(C)c(S(=O)(=O)N2CCN(CC(=O)Nc3sccc3C#N)CC2)c1C	inconclusive [inhibitor, single point]	–
CCOc1ccc(N(CC(=O)NC2CCCCC2)C(=O)CCC(=O)Nc2ccccn2)cc1	–	inactive: -15.2%
